Results taken from article PMC10229743.
These are yes or no findings as the source states them, for the method shown. In cells and extracts the contact can be indirect. Some results given as binding are weak or reduced against the parent protein; the word gives no strength.

Amino acid sequences for entries named in this document (tags omitted). A change or cut given only in a name is not applied to a line headed by its entry. Chains listed by the source or under a name are the forms on record and can include a tag or linker. Residues count along the entry.
UniProt P19474: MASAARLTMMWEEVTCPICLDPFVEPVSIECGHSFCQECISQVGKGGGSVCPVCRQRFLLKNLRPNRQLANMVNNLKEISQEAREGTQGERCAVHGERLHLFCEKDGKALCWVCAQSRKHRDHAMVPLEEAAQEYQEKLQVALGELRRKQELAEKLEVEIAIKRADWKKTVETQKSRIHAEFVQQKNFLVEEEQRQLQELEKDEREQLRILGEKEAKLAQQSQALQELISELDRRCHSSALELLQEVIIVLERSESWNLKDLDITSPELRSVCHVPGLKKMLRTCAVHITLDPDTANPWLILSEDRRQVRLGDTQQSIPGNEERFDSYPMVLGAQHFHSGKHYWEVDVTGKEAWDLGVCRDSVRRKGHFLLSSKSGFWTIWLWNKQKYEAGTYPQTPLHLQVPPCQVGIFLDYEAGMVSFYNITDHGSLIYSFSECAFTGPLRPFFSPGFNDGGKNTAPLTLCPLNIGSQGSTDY
His-TRIM21 deletion mutant lacking residues 12-55 located in the RING domain (His-RING^Δ) (P19474, form named): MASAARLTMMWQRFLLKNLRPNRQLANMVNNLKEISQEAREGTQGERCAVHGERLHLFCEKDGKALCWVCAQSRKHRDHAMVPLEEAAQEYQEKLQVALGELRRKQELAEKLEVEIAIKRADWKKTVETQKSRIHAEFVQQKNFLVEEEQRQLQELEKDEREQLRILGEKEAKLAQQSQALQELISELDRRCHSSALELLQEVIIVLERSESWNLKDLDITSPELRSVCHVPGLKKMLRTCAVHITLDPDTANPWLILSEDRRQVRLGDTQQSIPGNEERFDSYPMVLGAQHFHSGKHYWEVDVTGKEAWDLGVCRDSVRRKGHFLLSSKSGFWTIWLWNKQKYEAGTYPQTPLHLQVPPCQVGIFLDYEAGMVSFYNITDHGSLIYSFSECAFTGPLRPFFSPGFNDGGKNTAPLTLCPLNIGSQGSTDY
His-TRIM21 deletion mutant lacking residues 286-465 located in the SPRY domain (His-SPRY^Δ) (P19474, form named): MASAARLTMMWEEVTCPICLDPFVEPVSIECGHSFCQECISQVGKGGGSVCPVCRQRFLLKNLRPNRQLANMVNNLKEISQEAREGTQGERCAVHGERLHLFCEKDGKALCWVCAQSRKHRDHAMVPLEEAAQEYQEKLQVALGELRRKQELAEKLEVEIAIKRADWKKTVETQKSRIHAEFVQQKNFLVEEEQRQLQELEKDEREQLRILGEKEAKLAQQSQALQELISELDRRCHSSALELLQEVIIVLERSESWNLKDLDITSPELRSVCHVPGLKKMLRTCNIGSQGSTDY
UniProt P19096: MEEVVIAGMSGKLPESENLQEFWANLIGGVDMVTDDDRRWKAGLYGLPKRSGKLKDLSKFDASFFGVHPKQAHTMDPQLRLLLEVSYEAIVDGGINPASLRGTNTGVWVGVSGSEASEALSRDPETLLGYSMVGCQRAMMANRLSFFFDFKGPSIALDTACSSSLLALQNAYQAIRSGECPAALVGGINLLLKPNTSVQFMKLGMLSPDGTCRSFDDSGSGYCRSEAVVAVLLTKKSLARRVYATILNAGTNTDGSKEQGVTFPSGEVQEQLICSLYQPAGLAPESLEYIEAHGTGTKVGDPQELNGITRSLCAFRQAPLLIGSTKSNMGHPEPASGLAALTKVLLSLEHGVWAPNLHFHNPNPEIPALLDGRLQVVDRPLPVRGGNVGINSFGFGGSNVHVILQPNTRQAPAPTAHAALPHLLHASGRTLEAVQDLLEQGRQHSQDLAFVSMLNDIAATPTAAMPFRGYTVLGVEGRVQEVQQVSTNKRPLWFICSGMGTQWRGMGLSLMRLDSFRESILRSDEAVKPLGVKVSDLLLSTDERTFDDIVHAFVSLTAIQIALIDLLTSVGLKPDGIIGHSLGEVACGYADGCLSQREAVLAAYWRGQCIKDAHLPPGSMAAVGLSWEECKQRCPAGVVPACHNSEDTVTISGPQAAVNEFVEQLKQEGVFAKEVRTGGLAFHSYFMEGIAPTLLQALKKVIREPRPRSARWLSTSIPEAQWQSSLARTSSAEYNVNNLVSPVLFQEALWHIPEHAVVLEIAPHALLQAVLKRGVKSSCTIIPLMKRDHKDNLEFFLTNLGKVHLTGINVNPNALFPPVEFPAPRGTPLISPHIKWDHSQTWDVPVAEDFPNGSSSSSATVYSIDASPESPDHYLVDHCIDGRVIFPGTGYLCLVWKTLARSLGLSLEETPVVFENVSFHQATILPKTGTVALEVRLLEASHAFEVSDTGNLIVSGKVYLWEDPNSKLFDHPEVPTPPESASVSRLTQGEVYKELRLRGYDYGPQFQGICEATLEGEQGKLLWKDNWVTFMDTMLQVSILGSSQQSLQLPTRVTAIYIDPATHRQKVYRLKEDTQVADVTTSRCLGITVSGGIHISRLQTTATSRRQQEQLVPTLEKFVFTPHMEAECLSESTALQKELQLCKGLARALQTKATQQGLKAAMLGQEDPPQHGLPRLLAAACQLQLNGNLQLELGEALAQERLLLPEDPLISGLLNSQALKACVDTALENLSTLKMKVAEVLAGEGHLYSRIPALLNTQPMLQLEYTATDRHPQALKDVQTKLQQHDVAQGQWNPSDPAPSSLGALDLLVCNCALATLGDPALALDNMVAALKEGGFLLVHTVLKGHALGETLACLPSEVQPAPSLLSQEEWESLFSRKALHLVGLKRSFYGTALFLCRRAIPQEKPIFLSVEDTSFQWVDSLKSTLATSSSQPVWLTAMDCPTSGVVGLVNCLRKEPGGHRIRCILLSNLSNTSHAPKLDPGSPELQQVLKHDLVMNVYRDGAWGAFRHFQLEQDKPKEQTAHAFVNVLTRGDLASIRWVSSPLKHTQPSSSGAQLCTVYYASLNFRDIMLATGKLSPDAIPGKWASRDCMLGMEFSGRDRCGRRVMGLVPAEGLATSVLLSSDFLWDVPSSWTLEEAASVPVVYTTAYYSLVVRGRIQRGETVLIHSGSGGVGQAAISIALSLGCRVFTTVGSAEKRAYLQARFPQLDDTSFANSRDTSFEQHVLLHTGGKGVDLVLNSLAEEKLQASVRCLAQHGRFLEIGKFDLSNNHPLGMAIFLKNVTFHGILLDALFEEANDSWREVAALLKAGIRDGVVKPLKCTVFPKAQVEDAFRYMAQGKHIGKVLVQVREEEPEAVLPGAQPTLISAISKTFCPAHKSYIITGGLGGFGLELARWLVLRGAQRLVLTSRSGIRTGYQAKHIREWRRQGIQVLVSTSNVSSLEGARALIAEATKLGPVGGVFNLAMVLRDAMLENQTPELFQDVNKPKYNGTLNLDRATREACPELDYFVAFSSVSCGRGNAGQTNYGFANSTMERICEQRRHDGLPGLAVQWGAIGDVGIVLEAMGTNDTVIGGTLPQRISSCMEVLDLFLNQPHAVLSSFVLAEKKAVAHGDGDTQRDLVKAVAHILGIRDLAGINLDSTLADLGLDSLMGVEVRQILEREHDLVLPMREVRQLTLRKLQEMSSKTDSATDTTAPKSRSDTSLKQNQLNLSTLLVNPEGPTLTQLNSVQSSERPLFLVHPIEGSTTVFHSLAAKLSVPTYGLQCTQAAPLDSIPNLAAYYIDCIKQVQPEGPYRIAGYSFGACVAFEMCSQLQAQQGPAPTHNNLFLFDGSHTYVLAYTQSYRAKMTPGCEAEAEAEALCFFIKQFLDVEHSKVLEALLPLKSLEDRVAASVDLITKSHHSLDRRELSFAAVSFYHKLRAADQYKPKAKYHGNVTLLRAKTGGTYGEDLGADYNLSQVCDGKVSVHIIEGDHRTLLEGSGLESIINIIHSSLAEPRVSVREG

Tests used:
[1] = molecular target: His-TRIM21 deletion mutant lacking residues 12-55 located in the RING domain (His-RING^Δ) (UniProt P19474); assay: co-IP; mouse primary hepatocytes transfected with TRIM21 WT, His-RING^Δ or His-SPRY^Δ plasmids for 48 h, MG132 (10 μmol/L) for 4 h before lysis; His-tag immunoprecipitated; blot for FASN, PEPCK1 and His-tag
[2] = molecular target: His-TRIM21 deletion mutant lacking residues 286-465 located in the SPRY domain (His-SPRY^Δ) (UniProt P19474); assay: as above
[3] = molecular target: TRIM21 WT (wild type), plasmid-expressed (UniProt P19474); assay: as above
[4] = molecular target: T1, tripartite motif-containing protein 21 (TRIM21), endogenous in mouse primary hepatocytes (mouse (endogenous in primary hepatocytes)) (UniProt Q62191); assay: co-IP; endogenous proteins in mouse primary hepatocyte lysate; IP with anti-TRIM21, anti-PEPCK1 or anti-FASN antibody or control IgG, protein A/G agarose, overnight; immunoblot
T1 sequence: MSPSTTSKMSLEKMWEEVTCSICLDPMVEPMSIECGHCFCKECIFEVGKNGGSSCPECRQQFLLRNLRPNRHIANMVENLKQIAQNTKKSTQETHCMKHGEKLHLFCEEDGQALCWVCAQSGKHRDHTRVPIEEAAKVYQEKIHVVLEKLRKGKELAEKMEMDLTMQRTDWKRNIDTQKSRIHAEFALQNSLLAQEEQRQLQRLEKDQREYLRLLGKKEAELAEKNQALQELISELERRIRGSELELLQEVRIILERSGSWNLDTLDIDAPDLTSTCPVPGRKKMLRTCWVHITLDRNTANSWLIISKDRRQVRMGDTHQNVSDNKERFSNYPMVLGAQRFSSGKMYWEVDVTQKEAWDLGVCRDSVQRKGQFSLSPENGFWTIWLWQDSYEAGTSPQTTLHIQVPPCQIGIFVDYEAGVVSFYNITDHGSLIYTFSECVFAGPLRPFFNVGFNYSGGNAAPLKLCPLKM

binding [1]: no binding
binding [2]: binds
binding [3]: binds
binding [4]: binds
Substance: fatty acid synthase (FASN), endogenous in mouse primary hepatocytes (from UniProt P19096 1-2504)
